Several values for one entry are separate records, joined by “and”; a condition that tells them apart may be missing. Equal entries are not always repeated. Out of some 280,000 compounds screened, about 100 (0.036%) were called active. This list was built around the results that the source calls inconclusive (neither active nor inactive); the mix of calls is not that of the screen. Calls come from the whole dose curve; as a rule, active = well fitted inhibition curve with a large enough effect in the signal ratio, with a control signal flat (not every such curve was filed as active); inconclusive = small, poorly fitted or top-dose-only effect, or effect the other way, or a change in a side signal; inactive = no such curve, though single readings can be large or run the other way; the % refers to the signal ratio. Potencies beside an inconclusive call are fits to weak or partial responses and may not hold up. “Side channel” marks fits to a control or component signal instead of the main read-out.
What follows are compounds tested against Muscleblind-like protein 1 (Homo sapiens) (UniProt Q9NR56) (assay: qHTS Assay for Inhibitors of MBNL1-poly(CUG) RNA binding). Settings: TR-FRET MBNL1-His/biotin-(CUG)12 binding, 665/545 ratio; series mostly up to 57.5 µM.
Sequence of UniProt Q9NR56 (Q9NR56 whole entry, looked up): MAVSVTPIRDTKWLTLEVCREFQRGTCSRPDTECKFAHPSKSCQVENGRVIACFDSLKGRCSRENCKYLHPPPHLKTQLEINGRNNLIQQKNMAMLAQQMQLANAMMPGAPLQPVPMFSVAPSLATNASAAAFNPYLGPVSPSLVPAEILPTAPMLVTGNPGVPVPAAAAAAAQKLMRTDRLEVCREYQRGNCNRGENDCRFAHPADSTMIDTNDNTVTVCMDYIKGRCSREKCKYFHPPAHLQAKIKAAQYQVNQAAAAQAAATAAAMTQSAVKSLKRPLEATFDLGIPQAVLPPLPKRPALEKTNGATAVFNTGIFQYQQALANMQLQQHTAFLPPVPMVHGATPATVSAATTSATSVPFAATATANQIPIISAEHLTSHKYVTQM
Procedure, shortened: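 His-tagged MBNL1 binding to biotinylated (CUG)12 RNA was measured by TR-FRET using terbium anti-His antibody (0.055 ng/ul final) and streptavidin-XL665 (5 nM final). Compounds were titrated 92 nM to 58 uM; 60 min at room temperature.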
With CCc1nnc(NC(=O)/C=C/c2cccs2)s1 the Potency was “inactive”.
Cc1c(C(=O)Nc2ccncc2)sc2nc(-c3ccccc3)cn12 was tested, and the Potency was inconclusive: 31.6 µM [fluorescent, side channel, single point].
With S=C(Nc1ccccc1Cl)NC1CCN(Cc2ccccc2)CC1 the Potency was “inactive”.
O=C(c1cc(-c2ccco2)on1)N1CCOCC1 was tested, and the Potency was “inactive”.
C=CCn1cc(/C=C/c2cc[n+](C)cc2)c2ccccc21 was tested, and the Potency was inconclusive: 4.47 µM [quencher, side channel, partial curve].
In the case of COc1ccc(C(=O)Nc2ccccc2N2CCCCC2)cc1[N+](=O)[O-], the Potency is reported as inconclusive: 25.1 µM [quencher, side channel, single point].
For N#Cc1c(NC(=O)C2CC=CCC2C(=O)O)sc2c1CCCCCC2 (stereo not drawn), the Potency was “inactive”.
In the case of C=CCn1c(SCc2ccc(C(=O)Nc3nccs3)cc2)nnc1-c1ccc(C)c(Cl)c1, the Potency is reported as inconclusive: 39.8 µM [fluorescent, side channel, partial curve].
With CCOC(=O)c1[nH]c2ccc(OC)cc2c1NC(=S)N1CCN(c2ccccc2)CC1 the Potency was inconclusive: 39.8 µM [fluorescent, side channel, single point].
In the case of COc1ccc2c(Cl)c(C(=O)N/N=C/c3cccnc3)sc2c1, the Potency is reported as inconclusive: 14.1 µM [quencher, side channel, partial curve].
CCOc1ccc(-c2cn(S(=O)(=O)c3cccc4nsnc34)nc2N)cc1 was tested, and the Potency was inconclusive: 11.2 µM [quencher, partial curve, poor fit].
COc1ccc(-n2nc(C(=O)NCC(=O)N(C)Cc3ccccc3)c3ccccc3c2=O)cc1 was tested, and the Potency was inconclusive: 15.8 µM [quencher, side channel, partial curve].
In the case of COc1ccc(CCNC(=O)C/C(C)=N/NC(=O)c2ccc([N+](=O)[O-])cc2Cl)cc1OC, the Potency is reported as inconclusive: 25.1 µM [quencher, side channel, partial curve].
In the case of O=C(/C=C/c1ccc([N+](=O)[O-])cc1)NCCOc1ccc(F)cc1, the Potency is reported as inconclusive: 28.2 µM [quencher, side channel, partial curve].
For Cc1ccc(NCCC(=O)c2cccc([N+](=O)[O-])c2)cc1, the Potency was inconclusive: 1 µM [quencher, side channel, full curve, poor fit].
In the case of CCS(=O)(=O)CCSC1OC(COC(C)=O)C(OC(C)=O)C(OC(C)=O)C1OC(C)=O (stereo not drawn), the Potency is reported as “inactive”.
In the case of CSC1=NC2(CC(c3ccccc3)Oc3cc(O)ccc32)CC(C)(C)N1 (stereo not drawn), the Potency is reported as “inactive”.
COCCCN1C(=O)c2ccc(C(=O)OCC(=O)N(C)c3ccccc3)cc2C1=O was tested, and the Potency was inconclusive: 14.1 µM [quencher, side channel, partial curve].
For CCOC(=O)/C(N=Nc1ccc(C(=O)O)cc1[N+](=O)[O-])=C(\C)O, the Potency was inconclusive: 28.2 µM [quencher, single point].
C/C(Cn1nnc([N+](=O)[O-])n1)=N\NC(=O)c1ccc(O)cc1O was tested, and the Potency was inconclusive: 14.1 µM [quencher, side channel, partial curve].
For Cc1cc(OCC(=O)Nc2ccc(S(=O)(=O)N3CCN(C)CC3)cc2)ccc1Cl, the Potency was inconclusive: 63.1 µM [inhibitor, single point].
In the case of O=C1c2ccccc2C(Nc2ccc3c(c2)OCCO3)N1Cc1ccc2c(c1)OCO2 (stereo not drawn), the Potency is reported as inconclusive: 0.112 µM [quencher, side channel, full curve, poor fit].
With Cc1ccc(NC(=S)NNC(=O)Nc2ccccc2)cc1 the Potency was “inactive”.
With CC[n+]1ccc(/C=C/c2ccc(N(C)C)cc2)c2ccccc21 the Potency was inconclusive: 5.01 µM [quencher, side channel, partial curve].
For Cc1cc(C(=O)OCC(=O)N2CC(C)OC(C)C2)ccc1[N+](=O)[O-] (stereo not drawn), the Potency was inconclusive: 11.2 µM [quencher, side channel, partial curve].
For COc1ccc(OCC(=O)N2CCN(C(=O)c3ccc([N+](=O)[O-])cc3)CC2)cc1, the Potency was inconclusive: 25.1 µM [quencher, side channel, partial curve].
With COc1cccc(-c2ccc(NC(=O)C3CCCN(Cc4cnn(C(C)C)c4)C3)cc2)c1 (stereo not drawn) the Potency was “inactive”.
For COc1ccc(N(C(=O)CCl)C(C(=O)NCCc2ccccc2)c2cccs2)cc1Cl (stereo not drawn), the Potency was inconclusive: 0.126 µM [fluorescent, side channel, full curve, poor fit].
CC(Oc1ccc2c(-c3ccccc3)cc(=O)oc2c1)C(=O)NCC1CCC(C(=O)O)CC1 (stereo not drawn) was tested, and the Potency was inconclusive: 25.1 µM [quencher, side channel, single point] and inconclusive: 28.2 µM [quencher, side channel, single point].
CCS(=O)(=O)N1CCC(C(=O)Nc2cc(Cl)ccc2O)CC1 was tested, and the Potency was inconclusive: 6.31 µM [quencher, side channel, single point].
COC(=O)CNc1n[nH]c(=S)[nH]c1=O was tested, and the Potency was inconclusive: 39.8 µM [quencher, side channel, single point].
CC(C)(C)c1ccc(C(=O)NCC(=O)N/N=C/c2cccs2)cc1 was tested, and the Potency was inconclusive: 6.31 µM [fluorescent, side channel, single point].
CC(=O)NCCNC(=O)c1ccc2c(c1)S(=O)(=O)c1ccccc1C2=O was tested, and the Potency was inconclusive: 12.6 µM [quencher, side channel, partial curve].
With O=C(N/N=C/c1ccc(N2CCOCC2)cc1)c1ccccc1OCCOc1ccccc1 the Potency was inconclusive: 12.6 µM [quencher, side channel, partial curve].
In the case of Brc1ccc(Cn2c(-c3cncs3)nc3ccccc32)cc1, the Potency is reported as inconclusive: 39.8 µM [fluorescent, side channel, single point].
For Cc1ccc(S(=O)(=O)Nc2nc(C)c(NC(=O)OCCCl)s2)cc1, the Potency was “inactive”.
In the case of COc1ccc(-c2nc3c(c(=O)[nH]c(=O)n3Cc3ccccc3)n2CCO)cc1, the Potency is reported as “inactive”.
With COc1ccc(NC(=S)N(CCc2c(C)[nH]c3ccccc23)Cc2ccco2)cc1 the Potency was inconclusive: 79.4 µM [inhibitor, single point].
O=C(N/C(=C\c1ccco1)C(=O)N1CCOCC1)c1ccc([N+](=O)[O-])cc1 was tested, and the Potency was inconclusive: 15.8 µM [quencher, side channel, partial curve].
With CCOC(=O)c1oc2nc(C(C)C)c3c(c2c1N)CC(C)(C)OC3 the Potency was inconclusive: 28.2 µM [quencher, side channel, single point].
With CCOC(=O)Nc1ccc2c(CN3C(=O)NC(CC)(CC)C3=O)cc(=O)oc2c1 the Potency was inconclusive: 31.6 µM [quencher, side channel, single point].
For O=C(Oc1ccc2c(c1)OCO2)C12CC3CC(CC(C3)C1)C2, the Potency was inconclusive: 0.1 µM [fluorescent, side channel, partial curve, poor fit].
O=C(Nc1nc2ccc(Cl)cc2s1)c1ccc(N2CCCCC2)c([N+](=O)[O-])c1 was tested, and the Potency was inconclusive: 8.91 µM [quencher, side channel, single point].
In the case of CN1CCN(CCCNC(=O)Nc2cccc3ccccc23)CC1, the Potency is reported as inconclusive: 28.2 µM [quencher, side channel, single point].
For Cn1c(C(C#N)C2=C(Cl)C(=O)N(c3ccccc3)C2=O)nc2ccccc21 (stereo not drawn), the Potency was inconclusive: 15.8 µM [quencher, side channel, partial curve].
In the case of CCNc1cc(Nc2c(C)n(C)n(-c3ccccc3)c2=O)c([N+](=O)[O-])c2nonc12, the Potency is reported as inconclusive: 10 µM [quencher, side channel, partial curve].
With O=C(c1ccc(F)cc1)c1cc2ccc(O)cc2oc1=O the Potency was inconclusive: 20 µM [quencher, partial curve].
For CN(C)S(=O)(=O)c1cccc(NC(=S)N/N=C/c2cccc(O)c2)c1, the Potency was “inactive”.
With CN1C(=O)/C(=C/c2cn(CC(=O)NCc3ccco3)c3ccccc23)NC1=S the Potency was inconclusive: 15.8 µM [quencher, side channel, partial curve].
In the case of CC(C)CCOP(=O)(c1ccc(N(C)C)cc1)C(O)c1ccccc1F (stereo not drawn), the Potency is reported as inconclusive: 3.98 µM [fluorescent, side channel, single point].
In the case of CCC(O)CNc1nc(-n2nc(C)cc2C)nc2sc3c(c12)CCCC3 (stereo not drawn), the Potency is reported as “inactive”.
For O=[N+]([O-])c1c(Nc2ccccc2O)cc(N2CCOCC2)c2nonc12, the Potency was inconclusive: 12.6 µM [quencher, side channel, partial curve].
Cn1c(-c2cccc([N+](=O)[O-])c2)[n+](C)c2ccccc21 was tested, and the Potency was inconclusive: 20 µM [quencher, side channel, single point].
With CCOC(=O)N1CCC(Nc2nc(OC)nc(OC)n2)CC1 the Potency was “inactive”.
COc1ccc(-n2nc([N+](=O)[O-])c(=NC3CCN(Cc4ccccc4)CC3)n2O)cc1 was tested, and the Potency was inconclusive: 15.8 µM [quencher, side channel, partial curve].
With c1cc(C(c2nnnn2C2CCCC2)N2CCOCC2)ccn1 (stereo not drawn) the Potency was inconclusive: 39.8 µM [quencher, side channel, single point].
For O=C1CC(c2ccccc2)CC(O)=C1C=NC1CCCCC1 (stereo not drawn), the Potency was inconclusive: 39.8 µM [fluorescent, side channel, single point].
O=S(=O)(/N=C/c1c(O)ccc2ccccc12)c1cccs1 was tested, and the Potency was inconclusive: 31.6 µM [quencher, side channel, single point].
Potency is the fitted concentration of half-maximal effect; tags give direction and shape of the fitted curve or compound fluorescence and quenching.
